Experimental data from paper PMC6919601, “Identification of Plasmodium dipeptidyl aminopeptidase allosteric inhibitors by high throughput screening” (PLoS ONE, 2019).
In all, about 110,000 compounds went through this assay and about 230 (0.21%) showed an effect of 50% or more. The list shows a part of the results.

target: DPAP1 (Plasmodium falciparum, UniProt Q8IIJ9); assay: primary screen, percent inhibition; read by cleavage of a fluorogenic dipeptide substrate; higher = more effect of the substance; set-up: species or system P. falciparum D10 trophozoite lysates; single well
Sequence (Q8IIJ9 whole entry, looked up): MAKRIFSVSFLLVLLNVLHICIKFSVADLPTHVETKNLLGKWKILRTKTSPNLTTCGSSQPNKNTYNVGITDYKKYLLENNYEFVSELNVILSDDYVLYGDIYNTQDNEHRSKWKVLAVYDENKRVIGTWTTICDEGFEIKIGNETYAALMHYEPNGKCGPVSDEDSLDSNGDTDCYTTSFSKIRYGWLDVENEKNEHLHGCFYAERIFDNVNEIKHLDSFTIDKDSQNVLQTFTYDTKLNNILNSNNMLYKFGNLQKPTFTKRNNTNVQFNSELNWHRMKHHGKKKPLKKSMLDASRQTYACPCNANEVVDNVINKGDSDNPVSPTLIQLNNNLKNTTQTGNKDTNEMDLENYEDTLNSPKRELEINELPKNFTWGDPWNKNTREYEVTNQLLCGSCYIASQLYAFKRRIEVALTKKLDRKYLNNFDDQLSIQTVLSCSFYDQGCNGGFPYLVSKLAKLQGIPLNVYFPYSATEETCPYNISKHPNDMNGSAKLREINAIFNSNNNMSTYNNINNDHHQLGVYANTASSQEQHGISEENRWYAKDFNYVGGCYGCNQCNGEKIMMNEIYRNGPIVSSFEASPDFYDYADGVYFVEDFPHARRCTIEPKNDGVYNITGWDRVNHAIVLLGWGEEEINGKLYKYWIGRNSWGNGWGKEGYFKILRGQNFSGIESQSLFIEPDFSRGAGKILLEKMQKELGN
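Further: 30 min substrate incubation versus DMSO and 10 µM JCP410 controls.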

| SMILES | % Inhibition @ 10 uM [%] |
| --- | --- |
| CC1CCN(C(=O)c2ccccc2NC(=O)c2cccc(S(=O)(=O)N(C)C)c2)CC1 | -7.76 |
| COc1ccccc1C(=O)N1CCN(C(=O)COc2ccc(Cl)cc2)CC1 | 3.43 |
| CCCC1CCC(C2CCC(c3noc(-c4ccccc4C)n3)CC2)CC1 (centres unmarked) | 4.38 |
| CC1CN(Cc2ccc[nH]2)CC(C)O1 (centres unmarked) | -1.5 |
| COc1cc(CNC(C)(C)C)cc(Br)c1OCc1cccs1 | -1.16 |
| CCOc1cc(/C=C2/NC(=O)N(Cc3ccccc3F)C2=O)ccc1O | -1.32 |
| COc1ccccc1CN1CC(C(=O)NCc2cccnc2)CC1=O (centres unmarked) | 2.18 |
| COc1cccc2c1oc(=O)c1c(N)nc3c(c12)CC(C(C)(C)C)CC3 (centres unmarked) | -3.13 |
| Cc1ccc(-c2cn3c(n2)sc2cc(C(=O)N4CCN(c5ncccn5)CC4)ccc23)c(C)c1 | 15.3 |
| CC(CCc1ccccc1)NC(=O)CCCn1c2ccccc2c2cnnc(O)c21 (centres unmarked) | 1.38 |
| O=C(Nc1nc(-c2ccccc2)cs1)C1CCCCC1 | -2.42 |
| O=C(NC1CCN(Cc2ccccc2)CC1)[C@H](Cc1ccccc1)N1Cc2ccccc2C1=O | -2.25 |
| Cc1ccc(NC2=NC(=O)/C(=C\c3ccc(N(C)C)cc3)S2)cc1 | -8.88 |
| CCN(CC)Cc1c(O)ccc2c(=O)c(-c3ccccc3)coc12 | -5.7 |
| Cc1cccc(OCC(=O)O/N=C(\N)c2ccncc2)c1C | 2.25 |
| CCC(=O)Nc1nc(C23CC4CC(CC(C4)C2)C3)c(C)s1 | -5.87 |
| Oc1ccc(CNc2cccc(F)c2)c2cccnc12 | 1.89 |
| Cc1nnc(N2CCN(C(=O)NC3CCCC3)CC2)c2nn(-c3ccccc3)c(C)c12 | 3.24 |
| CCC(C(=O)NCc1cccc(OC)c1)n1ncn2c(cc3occc32)c1=O (centres unmarked) | 4.83 |
| O=C(CN1CCCCC1)Nc1ccc2c(c1)OCCO2 | 1.08 |
| COc1cc(OC)c(NC(=O)c2cccnc2)cc1Cl | -3.37 |
| CCNC(=O)CN(c1ccc(F)cc1)S(=O)(=O)c1ccccc1 | 2.5 |
| COC(=O)c1ccc(NC(=O)c2ccc([N+](=O)[O-])cc2Cl)cc1 | 2.54 |
| CN(Cc1ccccc1)C(=O)c1cc(S(=O)(=O)N2CCOCC2)cn1C | -2.17 |
| CCCc1n[nH]c(SCc2cccc(Oc3ccccc3)c2)n1 | -1.81 |
| Sc1nnc(-c2ccccc2)n1/N=C/C=C/c1ccco1 | 2.56 |

| SMILES | % Inhibition @ 10 uM [%] |
| --- | --- |
| CCC/N=c1/c(-c2ccc(C(C)C)cc2)c(O)c1=O | -5.96 |
| Cc1ccc(C2CC(=O)N=C(NC(=O)c3cccnc3)N2)cc1 (centres unmarked) | 3.89 |
| CCOC(=O)c1c(S(=O)(=O)N2CCCCC2C)c(C)n(C)c1C (centres unmarked) | 5.25 |
| COc1ccc(/N=C2\SC(C(=O)Nc3ccc(Cl)cc3)CC(=O)N2C)cc1 (centres unmarked) | -3.28 |
| CC(C)C[C@H](NC(=O)c1cccnc1)C(=O)NCC#N | 10.2 |
| COc1ccc(Cl)cc1Cc1nc(C)cc(O)n1 | 1.72 |
| O=C(CCCCCN1C(=O)c2ccccc2C1=O)Nc1nc(C2CC2)cs1 | 4.3 |
| COc1ccc(C(=O)Nc2ccc(C(=O)O)cc2)c(OC)c1 | 11.8 |
| CC/C(=C\c1sc2ccc(OC)cc2[n+]1CC)SCC(=O)O | 11.8 |
| CCCCCCP(=O)(O)c1ccccc1 | -2.51 |
| COc1ccc(CNC(=O)c2cc3c(s2)CN(Cc2ccccc2)C3)cc1 | 5.81 |
| CC1=C(C(=O)Nc2ccccc2)C(c2ccc3c(c2)OCO3)C(C(=O)Nc2ccccc2)=C(C)N1 | -3.5 |
| O=C(COCc1cc(-c2ccc3c(c2)OCO3)on1)NC1CCCc2ccccc21 (centres unmarked) | 3.62 |
| Cc1nn(-c2ccccc2)c(N)c1C(c1ccccc1)c1cccs1 (centres unmarked) | -1.7 |
| COc1cccc(-c2cc(C(=O)NCCCN3CCOCC3)c3ccccc3n2)c1 | 4.76 |
| C#CCOC(=O)c1ccccc1C(=O)N(CC)CC | -0.597 |
| CC(=O)c1sc(N2C(=O)C(O)=C(C(=O)c3cc4ccccc4o3)C2c2ccccc2)nc1C (centres unmarked) | 9.72 |
| CNC(=O)Cn1cnc2c1c(=O)[nH]c(=O)n2C | 1.76 |
| NC(=O)c1cc(NC(=O)c2cccc(F)c2)cc(C(N)=O)c1 | -6.36 |
| CC(=O)Nc1sc2c(c1C(=O)Nc1ccccc1)CCC(C)C2 (centres unmarked) | 3 |
| O=C(CNS(=O)(=O)c1cc(Cl)ccc1Cl)N1CCN(c2ccc(F)cc2)CC1 | 4.05 |
| CCCN(Cc1ccc2c(c1)c1ccccc1n2CC)CC1CC1 | -4.04 |
| Cc1cc(C)c(S(=O)(=O)N=C2C=CC(=O)C=C2)c(C)c1 | -0.178 |
| COc1cc(/C=c2\sc3ncnn3c2=O)cc(OC)c1OC | -1.52 |
| Cc1ccc(Cl)cc1NS(=O)(=O)c1ccc([N+](=O)[O-])cc1 | 1.04 |
| CCC(C)N(CCNC(=O)c1c2c(nc3ccccc13)C(=O)N(C1CCCCC1)C2)Cc1ccco1 (centres unmarked) | 2.48 |

| SMILES | % Inhibition @ 10 uM [%] |
| --- | --- |
| Cc1ccc(NC(=O)C2CC(Cl)=CCC2C(=O)O)c(Br)c1 (centres unmarked) | 0.726 |
| COc1ccc(-c2nonc2NC(=O)COc2c(F)c(F)c(F)c(F)c2F)cc1OC | 2.29 |
| O=C1OCc2ccccc2N1Cc1ccccc1 | -4.52 |
| Oc1nc(-c2ccccn2)cc2ccccc12 | -7.06 |
| COc1ccc(NC(=O)CN(c2cccc(Br)c2)S(C)(=O)=O)cc1 | 4.25 |
| CCn1c(/C=C/c2ccccc2)nc2ccccc2c1=O | 17.5 |
| CCCCn1c2ccccc2c2cc(C(C)=O)ccc21 | -4.84 |
| O=C(CCC(=O)c1ccc(F)cc1)Nc1cccnc1 | -0.551 |
| C=COCCn1c2ccccc2c2cc(Br)ccc21 | 1.9 |
| CN(C1CCCCC1)S(=O)(=O)c1ccc(CN2C(=O)c3cccnc3C2=O)cc1 | 4.48 |
| Cc1ccnc(NC(=O)CCNS(=O)(=O)c2cc(Br)cnc2N)c1 | -10.1 |
| CCOc1cc(/C=C2/SC(NC(C)=O)=NC2=O)ccc1OCC(=O)O | 4.85 |
| CC(C)=CCC[C@H](C)CCN1CCN(c2cccc(Cl)c2)CC1 | -5.94 |
| Cc1ccc(S(=O)(=O)Nc2ccc(-c3cn4ccsc4n3)cc2)c(C)c1 | -0.366 |
| O=C(CCN1C(=O)c2ccccc2C1=O)NCC1CCCO1 (centres unmarked) | -0.349 |
| COCc1[nH]nc2c1C(c1cccc(OC)c1)C(C#N)=C(N)O2 (centres unmarked) | 6.24 |
| CCOc1cc(C2CC(=O)NC3=C2C(=O)CC(c2cccs2)C3)ccc1O (centres unmarked) | 3.6 |
| Cc1cccc(NC(=O)COc2cc(C)c(Cl)c(C)c2)n1 | 5.99 |
| COCCNC(=O)CC(c1cc(OC)c(OC)c(OC)c1)N1Cc2ccccc2C1=O (centres unmarked) | -3.47 |
| Cc1cc2nc(NC3=NCN(Cc4cccnc4)CN3)nc(C)c2cc1C | -3.53 |
| Fc1ccc(CNc2nc3c(-c4ccccc4)nnn3c3ccccc23)cc1 | -2.92 |
| CCOC(=O)N1CCC(NCc2ccc(Cl)cc2)CC1 | 1.88 |
| O=C(Nc1c(C(=O)C2CC2)oc2ccccc12)c1ccc(Cl)cc1 | 2.15 |
| CCOC(=O)N1CCC(NC(=O)c2cc3ccc4cccnc4c3[nH]2)CC1 | -2.9 |
| COc1ccccc1CNC(=O)Cn1ncc2ccsc2c1=O | -4.69 |
| O=C1NC2(CCCCC2)N(C(=O)c2cccs2)C2=C1CCCC2 | 0.366 |

| SMILES | % Inhibition @ 10 uM [%] |
| --- | --- |
| O=c1c2c(nc(SCCc3ccccc3)n1-c1ccccc1)-c1ccccc1CC21CCCC1 | 1.27 |
| O=C(C1=C(O)C(=O)N(c2nccs2)C1c1ccccc1)c1ccc(Cl)cc1 (centres unmarked) | -6.67 |
| CCCc1ccccc1OCCNS(=O)(=O)c1cc(OC)c(Cl)cc1OC | 2.72 |
| Cc1c(C(=O)NCCCN2CCN(C)CC2)sc2ncn(CC(=O)N3CCCCC3C)c(=O)c12 (centres unmarked) | -8.7 |
| CCC(=O)NC(C)c1nc2ccccc2n1Cc1ccccc1F (centres unmarked) | 1.5 |
| Clc1ccccc1-c1nnc2sc(CCc3ccccc3)nn12 | 0.0539 |
| O=C(C1CCN(S(=O)(=O)c2ccc(F)cc2)CC1)N(Cc1ccccc1)Cc1ccccc1 | 0.583 |
| CCOc1cccc2c1Oc1nc(-c3cccc(O)c3)nc(O)c1C2 | 3.92 |
| Cc1ccc(NC(=O)c2cc3ccccc3cc2O)c([N+](=O)[O-])c1 | -2 |
| COc1ccc(-c2nnn3c2nc(NC(C)c2ccccc2)c2ccccc23)cc1 (centres unmarked) | -1.21 |
| O=C(NCCc1ccccc1)c1ccc(CS(=O)c2ccccc2Cl)o1 (centres unmarked) | 1.5 |
| CC1(C)CC(N(Cc2ccccc2)C(=O)Cc2ccccc2)CCO1 (centres unmarked) | 1.91 |
| COCCCNC(=O)/C(C#N)=C/c1c(Oc2cc(C)ccc2C(C)C)nc2ccccn2c1=O | -5.1 |
| Cc1ccc(CN(C)CCc2ccccn2)o1 | -1.21 |
| COc1ccc(C(=O)NCCC2=CCCCC2)cc1Br | -5.56 |
| Clc1ccc(-c2noc3ncnc(N4CCC5(CC4)OCCO5)c23)cc1 | 4.28 |
| O=C(O)CCc1nnc2n(Cc3ccccc3Cl)c(=O)c3ccccc3n12 | -2.41 |
| CCOC(=O)N1CCC(NC(=O)c2ccc(CSc3nc4ccncc4[nH]3)cc2)CC1 | -3.35 |
| CCOc1ccc(-n2cc(-c3ccccc3)c3c(NCc4cccnc4)ncnc32)cc1 | -3.56 |
| Cc1ccc(C)n1CCCCNC(=O)CC#N | -3.04 |
| O=S(=O)(Nc1cc(Cl)ccc1Cl)c1ccc2ccccc2c1 | 2.13 |
| CCOc1ccccc1CNC(=O)c1cc2c(=O)oc3ccccc3c2s1 | -0.631 |
| Cc1cccc(NS(=O)(=O)c2cc(-c3onc(C)c3C)ccc2C)n1 | 3.2 |
